The source of these data is patent publication US12116397B2, “IL-IR-I binding polypeptide” (Swedish Orphan Biovitrum AB (publ), priority 2017, dated 2024).

The test system of one data set is cynomolgus IL-1R-I. Nature of the data set: Biolayer interferometry (BLI) kinetic analysis of Z-Fc fusion proteins, cynomolgus IL-1R-I. The class given is binding. To be noted: 25° C. As for the experimental part:
(§1) Binding of four IL-1R-I binding fusion proteins to human and cynomolgus IL-1R-I was analyzed using BLI. The Fc fused IL-1R-I binding Z variants denoted PS10536, PS10537, PS10534 and PS10535 (SEQ ID NO:1648, 1649, 1646, 1647) were loaded onto a Protein A sensor (Pall, ForteBio cat. no. 18-5010) at 0.5 μg/ml for 150 s in each cycle using an OctetRED96 instrument (Pall, ForteBio). Subsequently, these sensors were exposed to different and increasing concentrations of human IL-1R-I (R&D systems cat. no. 269-1R/CF) ranging from 0.15 to 5 nM or cynomolgus IL-1R-I (SEQ ID NO:1665) ranging from 2.5 to 80 nM. Association was recorded for 300 s and dissociation for 300 s (human) or 90 s (cynomolgus) and spectrograms were recorded and analyzed according to a 1:1 Langmuir model using global fit (Octet System Data Analysis 8.2 software, Pall, ForteBio). Each sensor was referenced to a sensor with the same ligand loaded onto it but exposed to buffer only. Following each association/dissociation cycle, all sensors were regenerated by three pulses of 10 mM glycine at pH 2.5 for 10 s each. All steps were carried out at 25° C. at a shaking speed of 1000 rpm and all dilutions of fusion proteins (Z-Fc fusion proteins) and analytes (human or cynomolgus IL-1R-1) were in 1×kinetics buffer (Pall, ForteBio).
(In general: Biolayer interferometry detects binding as a change in optical thickness at a sensor tip.)

In the next data set the target is T1, hIL-1R-I (Homo sapiens, UniProt P14778).
T1 construct: purchased R&D Systems 269-1R/CF
T1 sequence (P14778 18-569): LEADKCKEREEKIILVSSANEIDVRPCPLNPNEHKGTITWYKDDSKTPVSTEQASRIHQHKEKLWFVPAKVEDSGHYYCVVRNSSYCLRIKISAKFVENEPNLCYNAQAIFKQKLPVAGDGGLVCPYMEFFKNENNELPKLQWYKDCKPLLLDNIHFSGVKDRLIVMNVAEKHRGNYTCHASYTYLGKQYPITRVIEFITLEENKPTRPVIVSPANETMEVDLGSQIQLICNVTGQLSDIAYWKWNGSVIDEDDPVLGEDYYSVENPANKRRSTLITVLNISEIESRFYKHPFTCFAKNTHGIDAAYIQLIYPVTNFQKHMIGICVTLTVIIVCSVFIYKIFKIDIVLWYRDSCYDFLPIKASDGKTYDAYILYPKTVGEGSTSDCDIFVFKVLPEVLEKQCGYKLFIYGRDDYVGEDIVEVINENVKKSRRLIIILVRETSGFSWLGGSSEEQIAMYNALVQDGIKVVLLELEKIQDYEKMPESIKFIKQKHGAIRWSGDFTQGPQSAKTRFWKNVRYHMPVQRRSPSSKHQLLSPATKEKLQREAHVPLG
Nature of the data set: Biolayer interferometry (BLI) kinetic analysis of Z-Fc fusion proteins, human IL-1R-I. It counts as binding. To be noted: 25° C. As for the experimental part:
as §1

Data set [1] is described as follows: In vivo pharmacokinetics of an IL-1R-I binding fusion protein in monkeys. On the set-up: species or system male Cynomolgus monkeys. As for the experimental part: The IL-1R-I binding fusion protein denoted PS10536 (SEQ ID NO:1648) was constituted as a solution in 25 mM sodium phosphate and 125 mM sodium chloride, pH 7.0.
The pharmacokinetic properties of PS10536 were investigated in naïve male Cynomolgus monkeys. Three monkeys were given an i.v. single dose of 5 mg/kg (1 ml/kg) injected in the tail vein and another three monkeys were given a s.c. single dose of 10 mg/kg (1 ml/kg) injected in the dorsal region. Blood samples for serum preparation were collected pre dosing and at 5 and 20 min, 1, 2, 4, 8, 12, 24, 48, 72, 96, 120, 144, 168, 240 and 504 hrs post i.v. dosing, or 20 min, 1, 2, 4, 8, 12, 24, 48, 72, 96, 120, 144, 168, 240 and 504 hrs post s.c. dosing.
Quantification of PS10536 in serum from monkeys was performed according to the ELISA described in Example 13.
Pharmacokinetic parameters were based on individual serum concentration versus time data and determined using WinNonlin software as described in Example 13. Estimation of the terminal slope following i.v. dosing was based on seven data points, from 72 to 504 hrs. Estimation of the terminal slope following s.c. dosing was based on eight data points, from 48 to 504 hrs. Calculation of the subcutaneous bioavailability (F) was performed using Microsoft Excel.

Data set [2] in a line: In vivo pharmacokinetics of IL-1R-I binding fusion proteins in rats. The arrangement: species or system male Sprague-Dawley rats. To be noted: male rats. On the procedure:
The IL-1R-I binding fusion proteins PS10534, PS10535, PS10536, PS10537, PS10538 and PS10539 (see Table 22, SEQ ID NO:1646-1651) were evaluated in this study. All six test items were constituted as a solution in 25 mM sodium phosphate and 125 mM sodium chloride, pH 7.0.
The pharmacokinetic properties of the six fusion proteins were investigated in male Sprague-Dawley rats. For each test item, three rats were given an i.v. single dose of 15 mg/kg (2.5 ml/kg) injected in the lateral tail vein and another three rats were given a s.c. single dose of 30 mg/kg (5 ml/kg) injected in the neck region. Blood samples for serum preparation were collected pre dosing and at 5 and 20 min, 1, 4, 8, 24, 48, 72 and 96 hrs post i.v. dosing, or 20 min, 1, 4, 8, 24, 48, 72, 96 and 120 hrs post s.c. dosing.
Determination of fusion protein levels in rat serum samples was performed by enzyme-linked immunosorbent assay (ELISA). The ELISA assay employed the quantitative sandwich enzyme immunoassay technique.
In brief; a goat polyclonal anti-Z antibody recognizing the Z variant domain of the IL-1R-I binding fusion protein (produced in house, Affibody AB) was coated onto a microplate. Unbound polyclonal antibody was washed away and casein was added as blocking agent to reduce unspecific binding to the plastic surface. After removal of unbound casein by a second wash step, standards and samples were pipetted to the wells and any fusion protein present was bound to the immobilized antibody. After washing away any unbound substances, a HRP labeled Swine anti-rabbit antibody (Dako, cat. no. P0399) was added. Following a wash to remove any unbound anti-rabbit HRP reagent, a substrate solution was added to the wells and color developed in proportion to the amount of fusion protein bound in the initial step. The color development was stopped and the intensity of the color was measured.
The pharmacokinetic analysis was based on median serum concentration versus time data from each dose group. The observed maximum concentration (Cmax) and the time to maximum serum concentration (tmax) were taken directly from the bioanalytical data. Other pharmacokinetic parameters, i.e. clearance (CL), apparent clearance following s.c. administration (CL/F), apparent volume of distribution at steady-state (Vss), mean residence time (MRT) and terminal half-life (t1/2z), were estimated by non-compartmental analysis using Phoenix WinNonlin software version 6.3 (Pharsight Corp., USA). Estimation of the terminal slope following i.v. dosing was based on four data points, from 24 to 96 hrs. Estimation of the terminal slope following s.c. dosing was based on five data points, from 24 to 120 hrs. Calculation of the subcutaneous bioavailability (F) was performed using Microsoft Excel.

Where [3] appears, read: i.v. single dose 5 mg/kg, male Cynomolgus monkeys.
Setting [4] is: male monkeys, intravenous single dose 5.04 mg/kg, mean ±SD, n=3.
Setting [5] is: male monkeys, subcutaneous single dose 10.1 mg/kg, mean ±SD, n=3.
The mark [6] stands for this setting: s.c. single dose 10 mg/kg, male Cynomolgus monkeys.
The mark [7] stands for this setting: intravenous single dose 15 mg/kg.
Setting [8] is: subcutaneous single dose 30 mg/kg.

B1: PS10536: Fc fused IL-1R-I binding Z variant (Z18754 variant with IgG1 Fc) (protein)
chain: AEAKYAKEVEEIQMEIFRLPNLTRRQYTAFIRKLLDDPSQSSELLSEAKKLSESQAPKASGGGGSGGGGS[sequence of human IgG1 Fc omitted]
modifications: Engineered IL-1R-I binding polypeptide
A word on the koff: it is the first-order rate constant of dissociation. A low value points to a long-lived complex. Usually kon stands for the second-order rate constant of association. A high value points to fast association. One may read the MRT as the average time that molecules of a dose stay in the body. As usually defined, the Vss is a proportionality between amount in the body and measured concentration, not a real space. A lower Vss goes with little distribution into tissue. Usually Cmax stands for the highest concentration seen after dosing. In general, half-life refers to the time needed for the level to fall by half in the phase considered. For B1, in the data set with cynomolgus IL-1R-I, the dissociation rate constant (koff) turned out to be 0.0234 s⁻¹ and the kon is 1.7e+06 M⁻¹ s⁻¹. In the data set with hIL-1R-I, this molecule yielded a koff of 0.000679 s⁻¹ and a kon of 899000 M⁻¹ s⁻¹. In data set [1] (setting [3]), this molecule registered a mean residence time of 109 h and a volume of distribution of 0.117 L/kg. In data set [1] (setting [4]), this molecule yielded an MRT of 109 ± 1 h, a Vss of 0.117 ± 0.003 L/kg and a t1/2z of 92.7 ± 3.7 h. Also, in data set [1] (setting [5]), the Cmax is reported as 779 ± 159 nM, the F came to 73.9 ± 5.5%, the MRT turned out to be 115 ± 14 h and the Vz/F was 0.163 ± 0.023 L/kg. In data set [1] (setting [5]), this molecule gave a t1/2z of 77.3 ± 6.3 h and a tmax of 18.7 ± 7.5 h. In data set [1] (setting [6]), the half-life was 77.3 h, the mean subcutaneous bioavailability is 73.9% and the “time of peak levels after dosing (average)” value was 18.7 h. Besides, in data set [2] (setting [7]), the MRT came out at 53.5 h, the Vss amounted to 0.143 L/kg and the t1/2z is 44.7 h. In data set [2] (setting [8]), the Cmax is on record as 948 nM, the F came out at 46.7%, the MRT stood at 74.5 h and the Vz/F was found to be 0.403 L/kg. In data set [2] (setting [8]), this molecule came in with a t1/2z of 46.1 h and a tmax of 24 h.

B2: PS10534: Fc fused IL-1R-I binding Z variant (protein)
chain: AEAKYAKEIEEVQMEIFYLPNLTRRQYTAFIRKLLDDPSQSSELLSEAKKLSESQAPKASGGGGSGGGGS[sequence of human IgG1 Fc omitted]
modifications: Engineered IL-1R-I binding polypeptide
In the data set with cynomolgus IL-1R-I, B2 registered a koff of 0.0299 s⁻¹ and an on-rate (kon) of 1.08e+06 M⁻¹ s⁻¹. Moreover, in the data set with hIL-1R-I, the koff amounted to 0.000642 s⁻¹ and the kon amounted to 404000 M⁻¹ s⁻¹. In data set [2] (setting [7]), this molecule displayed an MRT of 56.4 h, a Vss of 0.159 L/kg and a t1/2z of 48.7 h. For the same molecule, in data set [2] (setting [8]), the maximum concentration (Cmax) turned out to be 828 nM, the F is 41.5%, the MRT worked out at 72.4 h and the Vz/F was determined as 0.445 L/kg. In data set [2] (setting [8]), this molecule came in with a t1/2z of 45.3 h and a tmax of 24 h.

B3: PS10537: Fc fused IL-1R-I binding Z variant (protein)
chain: AEAKYAKEVEDIQLEIFALPNLTRRQYTAFIRKLLDDPSQSSELLSEAKKLSESQAPKASGGGGSGGGGS[sequence of human IgG1 Fc omitted]
modifications: Engineered IL-1R-I binding polypeptide
As to B3, in the data set with cynomolgus IL-1R-I, the koff came to 0.0548 s⁻¹ and the kon was determined as 1.78e+06 M⁻¹ s⁻¹. Also, in the data set with hIL-1R-I, the koff was 0.00102 s⁻¹ and the kon was 841000 M⁻¹ s⁻¹. In data set [2] (setting [7]), this molecule gave an MRT of 65.9 h, a Vss of 0.136 L/kg and a t1/2z of 55.1 h. In data set [2] (setting [8]), this molecule showed a Cmax of 1115 nM, an F of 60.3%, an MRT of 87.4 h and a Vz/F of 0.372 L/kg. In data set [2] (setting [8]), this molecule showed a t1/2z of 55.1 h and a tmax of 24 h.

B4: PS10535: Fc fused IL-1R-I binding Z variant (protein)
chain: AEAKYAKEIEEIQMEIFHLPNLTRRQYTAFIRKLLDDPSQSSELLSEAKKLSESQAPKASGGGGSGGGGS[sequence of human IgG1 Fc omitted]
modifications: Engineered IL-1R-I binding polypeptide
In the data set on cynomolgus IL-1R-I, B4 showed a koff of 0.0166 s⁻¹ and a kon of 1.49e+06 M⁻¹ s⁻¹. In the data set with hIL-1R-I, this molecule came in with a koff of 0.000421 s⁻¹ and a kon of 583000 M⁻¹ s⁻¹. Moreover, in data set [2] (setting [7]), the MRT was found to be 62.1 h, the Vss worked out at 0.149 L/kg and the t1/2z amounted to 52.1 h. In data set [2] (setting [8]), this molecule gave a Cmax of 866 nM, an F of 49.6%, an MRT of 87.3 h and a Vz/F of 0.457 L/kg. For the same molecule, in data set [2] (setting [8]), the t1/2z worked out at 55.6 h and the tmax is 24 h.
